Experimental findings from publication PMC12136788 are described below.

First the molecules themselves.
T1: UNK ZnF1-3 (human, UniProt Q9C0B0 31-174)
T1 sequence: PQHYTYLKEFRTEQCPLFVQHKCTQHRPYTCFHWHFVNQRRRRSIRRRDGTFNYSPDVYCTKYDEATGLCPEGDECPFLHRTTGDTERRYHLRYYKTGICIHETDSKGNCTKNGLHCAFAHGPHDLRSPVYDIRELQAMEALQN

B1: chr4:76721835:76721836:+_ENSG00000138768_ENST00000264904|hu_mus|hu_hu_hu_mus_True|78_78 (ssRNA)
RNA: GGGAGUUCUACAGUCCGACGAUCGUUUGGCUGGGGUUUCUGAGACGCUCUGGAAUAAACUCAUGUUUUGCUAAUAAAUCCUAGUUUCUCUAUGAAAUUCUCUUUGCCAAUCCUCUUCUCUAUUAGUUGCUUUAGUUUCUCUUUCAACAGAGGAUUGAGCAUCA
B2: chr9:53430067:53430068:-_ENSMUSG00000032030_ENSMUST00000166367|mus_hu|motif|central (ssRNA)
RNA: GGGAGUUCUACAGUCCGACGAUCGGGUGAGUUGACUUGAGGUUCAUACAACAAAACUUGCCGUUUGAGUUUUGGGAAAGCGGCGGAAGACCAUAAAGUCCUCCUAAGUUCAGCAUCAGGGAGUUCAGUUGCAAGCUUAAGAUUCAACAGAGGAUUGAGCAUCA
B3: 38023238_38029427_504_3pUTR_ENSG00000065882_ENST00000510573|human|control|control (ssRNA)
RNA: GGGAGUUCUACAGUCCGACGAUCGUUUUGGAAGAAUUCAUUCCCUCUAUCCUCUCACAGAGCUUGUGCAGGCUUUGCAGGGGGCAGCCCUCACACAGCUGGGCUGGCGCCUUAGCUGUCUGCUGCACUGCGGCCACCGUGAAGCAACAGAGGAUUGAGCAUCA
B4: chr17:37075478:37075479:+_ENSG00000002834_ENST00000318008|hu_hu|FALSE|FALSE (ssRNA)
RNA: GGGAGUUCUACAGUCCGACGAUCAAAGAGAGGUAGAGCCCAUCCCACUGGUCCCUACACAGCGGCAGAGUCCCCAUCGCCAUCCCAGGAACCAAGAAGUGGAUCCCACUCUGGGGAAUGUAGGGAGCCCCUGACCUGGGGUCCCAACAGAGGAUUGAGCAUCA
B5: chr14:62207507:62207508:+_ENSG00000100644_ENST00000337138|hu_hu|motif|central (ssRNA)
RNA: GGGAGUUCUACAGUCCGACGAUCUGACAACUGAUCGAAGGAACGUAACUGGAAGUCAUCAUCCAUUGGGAUAUAGGGAGCGGACAUCUCCAAGUCUAAAUCUGUGUCCUGAGUAGAAAAUGGGUUCUUUGCUUCUGUGUCUUCCAACAGAGGAUUGAGCAUCA
B6: chr1:94943820:94943821:+_ENSG00000117528_ENST00000370214|hu_hu|FALSE|FALSE (ssRNA)
RNA: GGGAGUUCUACAGUCCGACGAUCCGCUGGGCCCUGAGCUCCAAUUGCACUCGUUAACUUAAAGAUAUACAAAACUAUGUCUAAAAAUGGCUUACUAAGAUUUGAAUACAGAUCGACUACACUGUUACAAAAUUUUUCUACAUCCAACAGAGGAUUGAGCAUCA
B7: chr16:92112057:92112058:+_ENSMUSG00000039680_ENSMUST00000047429|mus_hu|motif|central (ssRNA)
RNA: GGGAGUUCUACAGUCCGACGAUCCCCUUCACAUUCUUUUAGUUCCUGGGUCAGAGGGUGUUUGACAAUAUUCCCUCGGAUCACAUCGGUAUCUCGAGACAAGUGCUCCACCAUGCUUUCAACAGCUGCGGUGGGUGCAUAAAACAACAGAGGAUUGAGCAUCA
B8: chr1:23374948:23374949:-_ENSMUSG00000026158_ENSMUST00000027343|mus_mus|FALSE|FALSE (ssRNA)
RNA: GGGAGUUCUACAGUCCGACGAUCCCUCAAAAUCUUAACACCUCACAAAUCGGUACAAGCUAAAGCUGGUGUAUUAUGUACCUAGAAUGAGGAAGUGUUUCUUGUCUUACUUACAGGGAUAUGAUUCACAAAUAAGUAUGUAUCCAACAGAGGAUUGAGCAUCA
B9: chr4:57314706:57314707:+_ENSG00000128050_ENST00000264221|hu_mus|hu_hu_hu_mus_True|1_98 (ssRNA)
RNA: GGGAGUUCUACAGUCCGACGAUCCAGAAUUUCAAAAAUAGCCUGUGUGGCAUGACUCAUGAUGUCCACUUCAGUCUGCCCUAUAACAAGGCCAGCAAAACAGAAUUUUGCAGCAAUGAGUUGCUCCUCAGACCACUGUGGGUCCAACAGAGGAUUGAGCAUCA
B10: chr2:202488911:202488912:-_ENSG00000155755_ENST00000286196|hu_mus|hu_hu_hu_mus_False|28_58 (ssRNA)
RNA: GGGAGUUCUACAGUCCGACGAUCAUUGAAACAUUUUUCAUAAUCUCCAGUAGCAUUUCAGCAUUAUGUAACAAAAGAUCUAUUACAAAUACAUGUAUCUUAUAAAAAUAAAAAUACAAACACGAGUGGGGAGCGCAGGCGCCACAACAGAGGAUUGAGCAUCA
B11: chrX:161375010:161375011:-_ENSMUSG00000061778_ENSMUST00000112247|mus_mus|motif|central (ssRNA)
RNA: GGGAGUUCUACAGUCCGACGAUCCAUCUGGAGGUGGCAAACUGAAACAGAAAAACCCACAUUAAGACAAAGCAUCACACGGGUGUCCCUUUAAGGUUUUCUUUCCUCGGCCGACUUCUUAAGGAGCUCCAUUACAUCACUCCUCAACAGAGGAUUGAGCAUCA
B12: chr13:115030651:115030652:+_ENSG00000130177_ENST00000356221|hu_hu|motif|central (ssRNA)
RNA: GGGAGUUCUACAGUCCGACGAUCAAUGUACAUUUCGAUGCAAUGACCAAGCAUUGUAACAGAAAAUGUAUCAUCUCGCCGGAGACCAAGGGCUGUGUGGAAGUAGUCCACAGCAUUUUCAAAGUUGCCCAUCAGACUGUGGAUCAACAGAGGAUUGAGCAUCA
B13: chr7:65705844:65705845:+_ENSG00000169902_ENST00000304842|hu_hu|motif|central (ssRNA)
RNA: GGGAGUUCUACAGUCCGACGAUCAAAAGGAUCUUUAUUACAUAAAUAAGGGGCUGGCUCCCCAUGCUUAACGAUAAUUUCGGGUAAGAAGGCUUGCAUGGCAGAAUCCAGCACUUCAUCAGUAACACCAGCCUCAUCCAGGCGCAACAGAGGAUUGAGCAUCA
B14: 55990807_55990927_1532_3pUTR_ENSMUSG00000022601_ENSMUST00000050248|mouse|control|control (ssRNA)
RNA: GGGAGUUCUACAGUCCGACGAUCUUGGUAACAUUCUCUUUUGAGAUUUUAGGAUGAACACUAGCAACUAUGCCAUCUUCUCUGGUGACUGCGGACUCUGGUUGGUUGCUUUCUUUUGCUAAGCUUGCAGUUCCCAUUUCAGGGCAACAGAGGAUUGAGCAUCA
B15: 247050632_247051731_2416_CDS_ENSG00000153207_ENST00000391829|human|control|control (ssRNA)
RNA: GGGAGUUCUACAGUCCGACGAUCCAUAAUAUCAAGUAGCAAAUAAAUGGUAAUAGAGUGUUUGGCUGCUUCAGUAACGCCGUCUAAUAGGUACAUAUCAAGUACUGCAUGCAGACUAGCAGGAGGAUAUUUUCCUGUGCCUCCCAACAGAGGAUUGAGCAUCA
B16: chr13:3599227:3599228:-_ENSMUSG00000033799_ENSMUST00000096069|mus_hu|motif|central (ssRNA)
RNA: GGGAGUUCUACAGUCCGACGAUCCAAGUAUGCUUUUAUGAGCUGGUGGUGCCAUAGUUUUAGAUUCCCUGUAUCGAAAAGCGGCAAUUACAUAAGGACAGAUCUGUCUGGGUCGUUCAAUAACGGUGUUGCCUGAAAGUUCGUCAACAGAGGAUUGAGCAUCA
B17: 55030989_55033531_1519_3pUTR_ENSMUSG00000032307_ENSMUST00000059555|mouse|control|control (ssRNA)
RNA: GGGAGUUCUACAGUCCGACGAUCUUCUUUUUCUUUUAAGAUCUGAAGAUCACUGUGCAAAGGACUAUCAGAGUCAACCUUGUGUAGUUUGACAUGCCAGUCAUAUAAGCUGUCAUUUAUUAGCUCCACUGAAUAAAUCCCUGCCAACAGAGGAUUGAGCAUCA
B18: chr1:29344795:29344796:+_ENSG00000159023_ENST00000356093|hu_hu|FALSE|FALSE (ssRNA)
RNA: GGGAGUUCUACAGUCCGACGAUCGAGUUCUGGGUCGUAGUCUCCCAGUUCAGACUGGAUGGUGUAAGAACCUAAUAAUGCUAAGGUUGCAAAGGAACAGGGCAGACGUCCUGCAACUAUGUCCUGCCGAAGCUGAAGACAUAACAACAGAGGAUUGAGCAUCA
B19: chr5:108714581:108714582:-_ENSG00000198961_ENST00000361557|hu_hu|motif|central (ssRNA)
RNA: GGGAGUUCUACAGUCCGACGAUCUGAAAGACCAGUGUAUGCCUCUGCCUCUCUGUUUUCCAACUCAAAUACUGUAUUGCCGGAUGAUUCCUGGUAUCUACUACCUUCCACGACUUCUGCAGAAAGUUGAAGAUGGUCAUUAUCCAACAGAGGAUUGAGCAUCA
B20: chr12:73313434:73313435:-_ENSMUSG00000021087_ENSMUST00000021497|mus_mus|motif|central (ssRNA)
RNA: GGGAGUUCUACAGUCCGACGAUCCAUAUAUCCUAAGAGUACAGGAAGAGCCUCAAAACACCUGUCUCAAAGUUUGCCUCGGAGAUUAUGGUACCAGGAAAGGGAAACAAUCAAUUUGCAGUAACGAGGAAGGAGAGAGCUGUUCAACAGAGGAUUGAGCAUCA
B21: chr18:34758715:34758716:-_ENSMUSG00000003778_ENSMUST00000003876|mus_mus|FALSE|FALSE (ssRNA)
RNA: GGGAGUUCUACAGUCCGACGAUCACUGGUAUGUGUUUCCAUGGGAUUUCUUUCUCCCAGCACUGGCAAUUGACAAGGAAACUAGCCAAAAGCUGUACCAUUAUUCUACCAAAAACAUUCCCAGCCCCAAACAUCACAACCCUCCAACAGAGGAUUGAGCAUCA
B22: chr1:66480114:66480115:+_ENSMUSG00000015222_ENSMUST00000024639|mus_hu|mus_mus_mus_hu_True|1_58 (ssRNA)
RNA: GGGAGUUCUACAGUCCGACGAUCUGGCCUGUGGCGGAUGUUCUUCAGAGAGCCACAUUUGGAUGUCACAUGGCUUAAGUCUAUCUUCUUGGUAACAAUUUGUACCUGCCCCCCUUUAGGCUGGUAUUUGAUGUUGUCAGUUGACAACAGAGGAUUGAGCAUCA

The list shows a part of the results.

The assay addresses T1, UNK ZnF1-3. The assay is described as follows: nsRBNS (natural sequence RNA bind-n-seq); RBNS binding buffer (assumed for nsRBNS): 25 mM Tris pH 7.5, 150 mM KCl, 3 mM MgCl2, 0.01% Triton X-100, 500 ug/ml BSA, 20 U/ml SUPERase-In, 4 C; UNK is unkempt and MSI1 is Musashi-1; names of the RNAs are library labels; protein concentration not given here; high values mean tight binding.
B1: the binding signal turned out to be 0.509 enrichment R.
As for B2, the binding signal worked out at 1.47 enrichment R.
The result for B3 reads 0.266 enrichment R; that for B4, 1.1 enrichment R; that for B5, 1.09 enrichment R.
The molecule B6 yielded a binding signal of 1.14 enrichment R.
The result for B7 reads 0.461 enrichment R; that for B8, 1.31 enrichment R.
In turn, B9 had a binding signal of 0.847 enrichment R.
Take B10: the binding signal is 1.02 enrichment R.
Molecule B11 came in with a binding signal of 1.45 enrichment R.
To B12 belongs 0.726 enrichment R.
B13 had a binding signal of 1.04 enrichment R.
The result for B14 reads 0.37 enrichment R.
The result for B15 reads 1.15 enrichment R.
For B16, the binding signal is 0.963 enrichment R.
The result for B17 reads 0.782 enrichment R; that for B18, 0.788 enrichment R.
To B19 belongs 0.675 enrichment R; to B20, 2.3 enrichment R.
B21 had a binding signal of 1.29 enrichment R.
To B22 belongs 0.426 enrichment R.
